Data from the CheMixHub viscosity set.
± gives the uncertainty stated by the source. Certain results were filed several times, with different values. This list holds those alone. There may be further records. The values listed for one entry repeat one measurement in other runs, samples, wells, individuals or studies. What stands in brackets tells the records apart. The letters are not those of the source and start again with each entry.

| Structure (SMILES) | viscosity (298.15 K, 101 kPa) | viscosity (298.15 K, 101.33 kPa) | viscosity (303.15 K, 101 kPa) | viscosity (308.15 K, 101 kPa) | viscosity (318.15 K, 101 kPa) | viscosity (303.15 K, 100 kPa) | viscosity (303.15 K, 101.33 kPa) | viscosity (308.15 K, 101.33 kPa) | viscosity (313.15 K, 100 kPa) | viscosity (313.15 K, 101 kPa) | viscosity (313.15 K, 101.33 kPa) | viscosity (323.15 K, 101.33 kPa) | viscosity (303 K, 101 kPa) | viscosity (323 K, 101 kPa) |
| --- | --- | --- | --- | --- | --- | --- | --- | --- | --- | --- | --- | --- | --- | --- |
| CCCCCCC | 0.3845 ± 0.015 mPa·s [study A] and 0.39 ± 0.004 mPa·s [study B] and 0.3942 ± 0.004 mPa·s [study C] and 0.3855 ± 0.01 mPa·s [study D] | 0.4022 ± 0.0039 mPa·s [study A] and 0.387 ± 0.012 mPa·s [study B] and 0.3865 ± 0.0058 mPa·s, 0.3865 ± 0.011 mPa·s, 0.3866 ± 0.0058 mPa·s [study C] and 0.4 ± 0.006 mPa·s [study D] | 0.369 ± 0.015 mPa·s [study A] and 0.364 ± 0.01 mPa·s [study B] and 0.3647 ± 0.0095 mPa·s [study C] and 0.393 ± 0.004 mPa·s [study D] and 0.388 ± 0.01 mPa·s [study E] | 0.347 ± 0.02 mPa·s [study A] and 0.3582 ± 0.0047 mPa·s [study B] and 0.355 ± 0.004 mPa·s [study C] and 0.3603 ± 0.0076 mPa·s [study D] |  |  |  |  |  |  |  |  |  |  |
| CN(C)C=O | 0.7912 ± 0.021 mPa·s, 0.802 ± 0.008 mPa·s, 0.796 ± 0.026 mPa·s, 0.8136 ± 0.021 mPa·s, 0.802 ± 0.041 mPa·s, 0.8108 ± 0.0082 mPa·s, 0.8 ± 0.1 mPa·s, 0.8 ± 0.24 mPa·s, 0.87 ± 0.02 mPa·s, 0.8 ± 0.02 mPa·s, 0.8279 ± 0.0073 mPa·s, 0.827 ± 0.018 mPa·s [several studies] |  | 0.758 ± 0.016 mPa·s, 0.83 ± 0.01 mPa·s, 0.7753 ± 0.0075 mPa·s, 0.744 ± 0.01 mPa·s, 0.78 ± 0.24 mPa·s, 0.82 ± 0.02 mPa·s, 0.7779 ± 0.007 mPa·s, 0.769 ± 0.016 mPa·s, 0.771 ± 0.036 mPa·s, 0.771 ± 0.029 mPa·s, 0.771 ± 0.023 mPa·s [several studies] | 0.7166 ± 0.019 mPa·s, 0.7116 ± 0.005 mPa·s, 0.713 ± 0.037 mPa·s, 0.7329 ± 0.0071 mPa·s, 0.709 ± 0.028 mPa·s, 0.709 ± 0.008 mPa·s, 0.924 ± 0.2 mPa·s, 0.73 ± 0.23 mPa·s, 0.78 ± 0.02 mPa·s, 0.7322 ± 0.0068 mPa·s, 0.701 ± 0.015 mPa·s [several studies] | 0.6674 ± 0.018 mPa·s, 0.64 ± 0.01 mPa·s, 0.6401 ± 0.0065 mPa·s, 0.638 ± 0.034 mPa·s, 0.653 ± 0.0064 mPa·s, 0.617 ± 0.025 mPa·s, 0.617 ± 0.007 mPa·s, 0.72 ± 0.02 mPa·s, 0.6518 ± 0.0064 mPa·s, 0.645 ± 0.014 mPa·s [several studies] |  |  |  |  |  |  |  |  |  |
| CCCCCO | 3.51 ± 0.3 mPa·s, 3.548 ± 0.031 mPa·s, 3.548 ± 0.092 mPa·s, 3.513 ± 0.091 mPa·s, 3.37 ± 0.01 mPa·s, 3.534 ± 0.043 mPa·s, 3.412 ± 0.032 mPa·s, 3.186 ± 0.15 mPa·s, 3.51 ± 0.21 mPa·s, 3.51 ± 0.026 mPa·s [several studies] | 3.286 ± 0.077 mPa·s [study A] and 3.421 ± 0.038 mPa·s [study B] and 3.51 ± 0.16 mPa·s [study C] and 3.421 ± 0.15 mPa·s [study D] and 3.388 ± 0.04 mPa·s [study E] | 2.727 ± 0.27 mPa·s [study A] and 2.971 ± 0.028 mPa·s [study B] and 3.052 ± 0.016 mPa·s [study C] and 2.835 ± 0.023 mPa·s [study D] | 2.518 ± 0.22 mPa·s [study A] and 2.724 ± 0.025 mPa·s [study B] and 2.694 ± 0.024 mPa·s [study C] and 2.544 ± 0.079 mPa·s [study D] and 2.599 ± 0.024 mPa·s [study E] | 2.074 ± 0.019 mPa·s [study A] and 2.085 ± 0.019 mPa·s [study B] and 2.085 ± 0.054 mPa·s [study C] and 2 ± 0.01 mPa·s [study D] and 2.014 ± 0.019 mPa·s [study E] | 3.115 ± 0.038 mPa·s [study A] and 2.954 ± 0.035 mPa·s [study B] and 3.048 ± 0.18 mPa·s [study C] and 3.053 ± 0.12 mPa·s [study D] | 2.833 ± 0.066 mPa·s, 2.832 ± 0.022 mPa·s, 3.086 ± 0.069 mPa·s, 2.832 ± 0.018 mPa·s, 2.973 ± 0.053 mPa·s, 2.973 ± 0.11 mPa·s, 2.832 ± 0.033 mPa·s, 2.787 ± 0.28 mPa·s, 3.055 ± 0.12 mPa·s [several studies] | 2.441 ± 0.058 mPa·s, 2.534 ± 0.022 mPa·s, 2.689 ± 0.061 mPa·s, 2.607 ± 0.03 mPa·s, 2.607 ± 0.12 mPa·s, 2.543 ± 0.03 mPa·s, 2.518 ± 0.11 mPa·s, 2.592 ± 0.046 mPa·s, 2.592 ± 0.098 mPa·s [several studies] | 2.34 ± 0.029 mPa·s [study A] and 2.301 ± 0.028 mPa·s [study B] and 2.294 ± 0.093 mPa·s [study C] and 2.338 ± 0.14 mPa·s [study D] and 2.341 ± 0.096 mPa·s [study E] | 2.34 ± 0.14 mPa·s [study A] and 2.29 ± 0.05 mPa·s [study B] and 2.368 ± 0.022 mPa·s [study C] and 2.299 ± 0.028 mPa·s [study D] and 2.283 ± 0.021 mPa·s [study E] | 2.344 ± 0.096 mPa·s [study A] and 2.163 ± 0.22 mPa·s [study B] and 2.344 ± 0.015 mPa·s [study C] and 2.344 ± 0.018 mPa·s [study D] and 2.299 ± 0.26 mPa·s [study E] and 2.299 ± 0.033 mPa·s [study F] and 2.344 ± 0.027 mPa·s [study G] | 1.7 ± 0.17 mPa·s [study A] and 1.765 ± 0.042 mPa·s [study B] and 1.765 ± 0.016 mPa·s [study C] and 1.304 ± 0.18 mPa·s [study D] |  |  |
| CCCCCCCC | 0.5186 ± 0.011 mPa·s [study A] and 0.53 ± 0.04 mPa·s [study B] and 0.517 ± 0.005 mPa·s [study C] and 0.517 ± 0.007 mPa·s [study D] and 0.529 ± 0.006 mPa·s [study E] | 0.5194 ± 0.0048 mPa·s [study A] and 0.505 ± 0.004 mPa·s [study B] and 0.522 ± 0.007 mPa·s [study C] and 0.503 ± 0.008 mPa·s [study D] |  | 0.4641 ± 0.01 mPa·s [study A] and 0.444 ± 0.013 mPa·s [study B] and 0.456 ± 0.008 mPa·s [study C] and 0.458 ± 0.004 mPa·s [study D] and 0.4684 ± 0.0081 mPa·s [study E] | 0.402 ± 0.013 mPa·s [study A] and 0.43 ± 0.04 mPa·s [study B] and 0.414 ± 0.006 mPa·s [study C] and 0.425 ± 0.0079 mPa·s [study D] |  |  | 0.453 ± 0.013 mPa·s [study A] and 0.4541 ± 0.013 mPa·s [study B] and 0.453 ± 0.011 mPa·s [study C] and 0.453 ± 0.004 mPa·s [study D] and 0.445 ± 0.007 mPa·s [study E] |  | 0.424 ± 0.013 mPa·s [study A] and 0.429 ± 0.011 mPa·s [study B] and 0.4201 ± 0.0053 mPa·s [study C] and 0.447 ± 0.008 mPa·s [study D] and 0.456 ± 0.006 mPa·s [study E] | 0.4201 ± 0.0053 mPa·s [study A] and 0.425 ± 0.012 mPa·s [study B] and 0.426 ± 0.012 mPa·s [study C] and 0.4295 ± 0.013 mPa·s [study D] |  |  |  |
| c1ccccc1 |  | 0.582 ± 0.005 mPa·s [study A] and 0.595 ± 0.003 mPa·s [study B] and 0.5996 ± 0.016 mPa·s [study C] and 0.6059 ± 0.016 mPa·s [study D] and 0.591 ± 0.0047 mPa·s [study E] and 0.6108 ± 0.0055 mPa·s [study F] | 0.559 ± 0.011 mPa·s, 0.559 ± 0.006 mPa·s, 0.573 ± 0.004 mPa·s, 0.574 ± 0.007 mPa·s, 0.565 ± 0.011 mPa·s, 0.5698 ± 0.015 mPa·s, 0.573 ± 0.015 mPa·s, 0.5752 ± 0.0069 mPa·s, 0.57 ± 0.015 mPa·s, 0.572 ± 0.04 mPa·s [several studies] | 0.53 ± 0.01 mPa·s [study A] and 0.535 ± 0.011 mPa·s [study B] and 0.522 ± 0.006 mPa·s [study C] and 0.524 ± 0.015 mPa·s [study D] and 0.5292 ± 0.0047 mPa·s [study E] and 0.538 ± 0.0068 mPa·s [study F] and 0.537 ± 0.038 mPa·s [study G] and 0.554 ± 0.015 mPa·s [study H] | 0.47 ± 0.01 mPa·s [study A] and 0.464 ± 0.01 mPa·s [study B] and 0.4603 ± 0.0048 mPa·s [study C] and 0.46 ± 0.005 mPa·s [study D] |  | 0.57 ± 0.015 mPa·s [study A] and 0.565 ± 0.006 mPa·s [study B] and 0.63 ± 0.067 mPa·s [study C] and 0.63 ± 0.017 mPa·s [study D] | 0.4801 ± 0.0045 mPa·s [study A] and 0.517 ± 0.003 mPa·s [study B] and 0.518 ± 0.0041 mPa·s [study C] and 0.5518 ± 0.0074 mPa·s [study D] and 0.604 ± 0.065 mPa·s [study E] and 0.604 ± 0.017 mPa·s [study F] |  | 0.491 ± 0.009 mPa·s [study A] and 0.488 ± 0.005 mPa·s [study B] and 0.5022 ± 0.0066 mPa·s [study C] and 0.508 ± 0.011 mPa·s [study D] and 0.522 ± 0.014 mPa·s [study E] | 0.5391 ± 0.015 mPa·s [study A] and 0.4922 ± 0.013 mPa·s [study B] and 0.598 ± 0.064 mPa·s [study C] and 0.598 ± 0.017 mPa·s [study D] |  | 0.5553 ± 0.0039 mPa·s, 0.5551 ± 0.0039 mPa·s, 0.5556 ± 0.0039 mPa·s, 0.5554 ± 0.0039 mPa·s | 0.4354 ± 0.0032 mPa·s, 0.4343 ± 0.0032 mPa·s, 0.4346 ± 0.0032 mPa·s, 0.4344 ± 0.0032 mPa·s |
| O=[N+]([O-])c1ccccc1 | 1.832 ± 0.048 mPa·s, 1.834 ± 0.048 mPa·s, 1.804 ± 0.048 mPa·s, 1.82 ± 0.015 mPa·s, 1.825 ± 0.017 mPa·s, 1.817 ± 0.047 mPa·s, 1.528 ± 0.012 mPa·s, 1.86 ± 0.019 mPa·s, 1.834 ± 0.023 mPa·s, 1.834 ± 0.024 mPa·s [several studies] | 1.822 ± 0.085 mPa·s, 1.763 ± 0.082 mPa·s, 1.827 ± 0.085 mPa·s [study A] and 1.873 ± 0.098 mPa·s, 1.873 ± 0.19 mPa·s [study B] | 1.675 ± 0.015 mPa·s [study A] and 1.7 ± 0.05 mPa·s [study B] and 1.682 ± 0.014 mPa·s [study C] and 1.639 ± 0.043 mPa·s [study D] and 1.666 ± 0.043 mPa·s [study E] and 1.646 ± 0.015 mPa·s [study F] |  |  |  |  |  |  |  |  |  |  |  |
| ClC(Cl)=C(Cl)Cl |  |  |  |  |  |  | 0.798 ± 0.007 mPa·s [study A] and 0.7976 ± 0.0058 mPa·s [study B] and 0.796 ± 0.006 mPa·s [study C] and 0.796 ± 0.022 mPa·s [study D] and 0.74 ± 0.014 mPa·s [study E] |  |  |  |  |  |  |  |
